From the supplement of paper PMC12582362
Structures can show the parent of a compound that is named as a salt. Hit rate of the full screen: of about 1,500 compounds, about 30 (2%) showed activity.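 How the source made its calls: active = robust z-score below -2; a few such results were not called.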 This is one part of the list.

Test system: optoTopBP1 Flp-In 293 T-REx (HEK293) cells
Test: light-induced TopBP1 condensate (nuclear foci) count, plate-normalised robust z-score vs non-control wells; higher = more TopBP1 condensates (negative = condensation inhibitor), active = hit call of the paper
Details: 10 µM; incubation time 2 h

Compound	light-induced TopBP1 condensate (z-score)
CN1C[C@H](C(=O)N[C@]2(C)O[C@@]3(O)[C@@H]4CCCN4C(=O)[C@H](Cc4ccccc4)N3C2=O)C[C@@H]2c3cccc4[nH]cc(c34)C[C@H]21 [Dihydroergotamine tartrate]	inactive: 1.14
CC(=O)OC1CN2CCC1CC2 (stereo not drawn) [Aceclidine Hydrochloride]	inactive: -1.46
COc1cccc(C2(O)CCCCC2CN(C)C)c1 (stereo not drawn) [Tramadol hydrochloride]	inactive: 0.893
CCCOC(=O)Cc1ccc(OCC(=O)N(CC)CC)c(OC)c1 [Propanidid]	inactive: 1.18
CC(CCc1ccccc1)NC(C)C(O)c1ccc(O)cc1 (stereo not drawn) [Nylidrin]	inactive: 0.555
CC(C)N(CCC(C(N)=O)(c1ccccc1)c1ccccn1)C(C)C (stereo not drawn) [Disopyramide]	inactive: -1.22
C[C@H](N)[C@H](O)c1ccc(O)c(O)c1 [Levonordefrin]	inactive: 1.85
O=[N+]([O-])O[C@@H]1CO[C@H]2[C@@H]1OC[C@@H]2O [Isosorbide mononitrate]	inactive: 0.806
CN[C@@H]1C[C@@H](c2ccc(Cl)c(Cl)c2)c2ccccc21 [Indatraline hydrochloride]	inactive: -1.65
Nc1nc(N)nc(NC2CC2)n1 [Cyromazine]	inactive: -0.353
CN1[C@@H]2CC[C@H]1C[C@@H](OC(=O)[C@H](CO)c1ccccc1)C2 [Hyoscyamine (L)]	inactive: 0.214
C=CC[C@]1(O)CC[C@H]2[C@@H]3CCC4=CCCC[C@@H]4[C@H]3CC[C@@]21C [Allylestrenol]	inactive: 1.27
C=C[C@H]1CN2CC[C@H]1C[C@H]2[C@H](OC(=O)OCC)c1ccnc2ccc(OC)cc12 [Quinine ethyl carbonate]	inactive: -0.776
C[C@]12C=CC(=O)C=C1CC[C@@H]1[C@@H]2CC[C@@]2(C)[C@H]1CC[C@]2(C)O [Methandrostenolone]	inactive: 0.27
C[C@]12CC[C@H]3[C@@H](CCC4=CC(=O)CC[C@@H]43)[C@@H]1CC[C@@H]2O [Nandrolone]	inactive: 2.28
COc1ccc(CN2CCNCC2)c(OC)c1OC [Trimetazidine dihydrochloride]	inactive: -0.0207
CC(C)CC(N(C)C)C1(c2ccc(Cl)cc2)CCC1 (stereo not drawn) [Sibutramine hydrochloride]	inactive: 0.721
O=C([O-])c1ccccc1-c1c2cc(Br)c(=O)cc-2oc2[c]([Hg+])c([O-])c(Br)cc12.[Na+].[Na+].[OH-] [Merbromin]	inactive: -0.221
